This is an account of results in PubChem BioAssay AID463173 (ICCB-Longwood Screening Facility, Harvard Medical School, 2010).

In all, about 52,000 compounds went through this assay and about 4,300 (8.3%) were called active. Cut-off read from the data, not from the text of the source: active = survival mostly below about 52% (no sharp cut-off); inactive = mostly above about 56%. The list shows a part of the results.

In this test the test system is DeltatarO mutant. Kind of test: growth inhibition of S. aureus wild type versus tarO mutant, primary screen, teichoic acid synthesis inhibitors, RN4220, OD600 (AID 463173). The following applies: OD600, 18 h, active compounds read low, screened at 18.75 µg/mL (by protocol).
With `Cc1ccc(S(=O)(=O)c2cnc(SC(C)C(=O)Nc3ccccc3)[nH]c2=O)cc1` (stereo not drawn), the survival is inactive: 71%. In the case of `CCOc1ccc(OCC)c(NC(=O)c2cc(CN3CCOCC3)on2)c1`, the survival was inactive: 84%. `COc1ccc2c(c1)c1c(c(=O)n(-c3ccc(C)cc3)c(=O)n1CC(=O)N1CCCC1)n2C`: the survival was inactive: 88%.

Take `CC(=O)OC(C(=O)NCc1ccc2c(c1)OCO2)c1ccccc1Cl` (stereo not drawn): the survival is inactive: 87%. With `CCOc1ccc(-n2ccn3c(CC(C)CC(=O)O)nnc3c2=O)cc1` (stereo not drawn), the survival is inactive: 182%. With `Cc1ccccc1-c1nc2cc(NC(=O)c3cccc(OCCC(C)C)c3)ccc2o1`, the survival was inactive: 48%. Consider `CCC12CN3CC(C)(CN(C1)C3c1ccccc1C)C2=O` (stereo not drawn), for which the survival was inactive: 76%. With `CCOC(=O)N1CCC(NC(=O)c2ccc3c(c2)N(Cc2ccccc2)C(=O)c2ccccc2S3=O)CC1` (stereo not drawn) the figure was inactive: 57%; with `COc1cc(NC(=O)c2ccc(-c3nc(COc4ccccc4)c(C)o3)cc2)cc(OC)c1`, inactive: 91%; with `O=C(c1ccco1)c1cn(CC(=O)N2CCc3ccccc32)c2ccccc12`, inactive: 79%. With `CC(C)COC(=O)CNc1n[nH]c(=S)[nH]c1=O` the figure was inactive: 73%; with `CCOc1ccc(N(CC)S(=O)(=O)N2CCCC(C(=O)Nc3ccc(OC)c(OC)c3)C2)cc1` (stereo not drawn), inactive: 108%; with `CCOC(=O)C1CCCN(C(=O)c2cccc(NC(=O)c3nsc4ccccc34)c2)C1` (stereo not drawn), inactive: 97%. Consider `Cc1ccc(NC(=O)CCNS(=O)(=O)c2ccc(Br)s2)cc1`, for which the survival is active: 50%.

Take `COc1cc(C2C(=O)N(C3CCCCCC3)CC(=O)N2CCC2=CCCCC2)ccc1OC(C)C` (stereo not drawn): the survival was inactive: 85%.

Regarding `O=C(NCCS(=O)(=O)N1CCN(c2ccccc2F)CC1)C(c1ccccc1)c1ccccc1`, the survival is inactive: 95%. With `O=C(Nc1ccccc1Cl)c1cc(S(=O)(=O)N2CCC3(CC2)OCCO3)ccc1F`, the survival is inactive: 100%. Take `COc1cccc(C(=O)COc2cccc(NC(=O)c3ccco3)c2)c1`: the survival is inactive: 82%. On to `Cc1ccc(-c2nnc(Nc3ccc(O)cc3)c3ccccc23)cc1S(=O)(=O)N1CCN(C)CC1`, for which the survival is inactive: 90%. With `O=c1[nH]n(CC2COC3(CCCCC3)O2)c(=O)c2ccccc12` (stereo not drawn) the figure was inactive: 96%; with `COc1ccc(Nc2cc(C(=O)NCCc3ccc(C)cc3)c3ccccc3n2)c(OC)c1`, inactive: 83%. Turning to `CCOC(=O)N1CCC(NC(=O)c2c(C)nn(-c3ccc(C)cc3)c2-n2cccc2)CC1`, the survival is inactive: 55%.

`CCCCOc1ccc(C(=O)Nc2nnc3n2CCS3)cc1`: the survival is inactive: 99%. As for `COc1ccc2cc3cc(C(=O)NCc4ccc(C)cc4)oc3nc2c1`, the survival was inactive: 83%.

On to `Cc1cc(C)cc(NC(=O)CSc2nc3c(oc4ccccc43)c(=O)n2-c2ccccc2F)c1`, for which the survival was inactive: 74%. For the compound `COc1ccc(OC)c(CCNC(=O)c2ccc3c(c2)N(Cc2ccc(C)cc2)CCS3)c1`, the survival was inactive: 79%. With `COc1ccc(NC(=O)Cn2nnc3sc4c(c3c2=O)CCC(C)C4)c(OC)c1` (stereo not drawn) the figure was inactive: 133%; with `Cc1ccc(C)c(Cn2c3ccccc3c3cnn(CC(=O)NCCC4=CCCCC4)c(=O)c32)c1`, inactive: 81%.

Regarding `COc1ccc(Cl)cc1NC(=O)c1sc(-n2nc(C)c(Cc3ccccc3)c2C)nc1C`, the survival was inactive: 90%. Next, `S=C(Nc1ccccc1)N1CCN(c2ccccc2)CC1`: inactive: 101%; `CCCn1c2ccccc2c2cnn(CC(=O)NCCc3ccc(OCC)cc3)c(=O)c21`: active: -5%.

As for `CCOc1ccc(-c2nn(CC(=O)NC3CCCCC3)c3c2cnc2ccc(C)cc23)cc1`, the survival was inactive: 107%.

In the case of `Cc1ccc(C(=O)NCCc2ccc(Cl)cc2)cc1-n1c(C)nc2cccnc21`, the survival was inactive: 94%. In the case of `COc1cc(-c2noc(-c3ccc(NCc4ccccc4)c([N+](=O)[O-])c3)n2)cc(OC)c1OC`, the survival is inactive: 79%.

Regarding `CCOc1ccc(NC(=O)CCNS(=O)(=O)c2ccc3c(c2)oc(=O)n3C)cc1`, the survival is inactive: 95%. Regarding `CCc1ccc(CNC(=O)CCC(=O)N2Cc3cccc(OC)c3Oc3ncccc32)cc1`, the survival was inactive: 75%. Next, `COCC(C)NCc1cccc(Oc2ccccc2)c1` (stereo not drawn): inactive: 86%; `CCOc1cc(C(=O)N2CC(=O)Nc3ccc(C)cc3C2c2ccccc2)cc(OCC)c1OCC` (stereo not drawn): inactive: 142%. As for `Cc1nnc(SCc2ccccc2)c2cc3sccc3n12`, the survival was inactive: 53%. With `O=S(=O)(Nc1cccc(-c2ccc(N3CCCC3)nn2)c1)c1ccccc1C(F)(F)F` the figure was inactive: 61%; with `O=C(C1CCCCC1)N1CCc2ccccc21`, inactive: 69%; with `COc1ccc(N2CCN(c3oc(/C=C/c4ccc(F)cc4)nc3C#N)CC2)cc1`, inactive: 84%.

Regarding `CCc1ccc(CN(Cc2ccco2)C(=O)c2ccc(OC)cc2)cc1`, the survival was active: 52%. For `COCCn1c(CNC(=O)c2ccc(C)cc2)nc2cccnc21`, the survival was inactive: 72%. Next, `CCN(CC)CCOC(=O)c1ccc(NC(=O)Cn2ncc3c([nH]c4ccc(C)cc43)c2=O)cc1`: inactive: 86%; `Cc1ccccc1CS(=O)(=O)CC1Nc2ccc(C(=O)NCc3ccc(Cl)cc3)cc2NC1=O` (stereo not drawn): inactive: 79%. `Cc1ccc(-n2nc(C)c(C(=O)NCCCN3CCN(c4ccc(F)cc4)CC3)c2-n2cccc2)cc1`: the survival was inactive: 92%. With `Cc1ccc(C)c(Cn2c3ccccc3c3cnn(CC(=O)NCCCc4ccccc4)c(=O)c32)c1`, the survival was inactive: 126%. For the compound `CCOc1ccc(-c2nonc2NC(=O)c2oc3c(C)c(C)ccc3c2C)cc1OCC`, the survival is active: 34%. Turning to `Cc1cc(C)cc(OC(C)C(=O)Nc2nonc2-c2ccc(Br)cc2)c1` (stereo not drawn), the survival was active: 14%.

Regarding `Cc1nnc(SCC(=O)n2c3ccccc3c3ccccc32)s1`, the survival was inactive: 89%. As to `O=C(Nc1cccc(C(=O)OCc2cc(=O)n3nc(C4CC4)sc3n2)c1)c1ccccc1`, the survival is active: 6%.

`Cc1ccccc1NC(=O)CSc1nnc(C)c(=O)[nH]1`: the survival was inactive: 83%. For the compound `CN(c1ccc(O)cc1)c1nc(-c2cccs2)cs1`, the survival is active: 1%. On to `Nc1c(-c2nc(-c3cccs3)no2)nnn1-c1ccccc1Cl`, for which the survival was inactive: 66%. For the compound `Cc1ccc(Cl)cc1N(C)C(=O)Cn1nc(Cc2cccnc2)c2ccccc2c1=O`, the survival was inactive: 80%. Regarding `CCOc1cccc(CNC(=O)c2ccc(N3CCCC3)c(NC(=O)NCc3ccc(F)cc3)c2)c1`, the survival was inactive: 74%.

Turning to `COc1ccc(C)cc1NC(=O)c1oc2ccc(S(=O)(=O)N3CCCCC3)cc2c1C`, the survival was inactive: 55%.

For the compound `Cc1ccc(SCc2[nH]nc3c2C(c2ccoc2)C(C#N)=C(N)O3)cc1` (stereo not drawn), the survival is inactive: 103%. Take `Cc1ccc(C)c(N2CCN(S(=O)(=O)c3cc(Br)cc4c3N(C(=O)C3CC3)CC4)CC2)c1`: the survival was inactive: 133%. For `CCOc1ccc(C2c3[nH]c4ccccc4c3CCN2C(=O)CCc2ccccc2)cc1` (stereo not drawn), the survival is inactive: 116%. In the case of `COC(=O)c1nc2n(n1)C(c1cccc(Cl)c1)C(C(=O)Nc1ccccc1OC)=C(C)N2` (stereo not drawn), the survival was inactive: 123%.

Consider `O=CNC1CCCc2c1[nH]c1ccccc21` (stereo not drawn), for which the survival was inactive: 100%. Consider `Cc1c2cnn(-c3ccccc3)c(=O)c2c(C)n1CCCC(=O)Nc1cc(F)ccc1F`, for which the survival is inactive: 74%. As for `Cc1cccc(C)c1NC(=O)C(NS(=O)(=O)c1ccc2c(c1)CCC(=O)N2)c1ccccc1` (stereo not drawn), the survival is inactive: 98%. Next, `O=C(CSC1=Nc2ccccc2C2=NC(CC(=O)NC3CCCCC3)C(=O)N12)Nc1ccc(F)cc1` (stereo not drawn): inactive: 78%; `O=C(CSc1nc2ccccc2nc1Cc1ccc(Cl)cc1)N1CCc2ccccc21`: inactive: 93%; `CCc1ccc(CNC(=O)CN2C(=O)c3cccnc3Oc3ccc(Cl)cc32)cc1`: inactive: 67%.

Consider `Cc1ccc(-c2nc(C)c(CCNC(=O)c3ccco3)s2)cc1`, for which the survival is inactive: 82%. Consider `COc1ccc(N2CCN(S(=O)(=O)c3ccc4oc(=O)c5ncn(C)c5c4c3)CC2)cc1`, for which the survival is inactive: 73%. On to `COc1ccc(-c2nc3sc(CCNC(=O)c4cc(OC)c(OC)c(OC)c4)c(C)n3n2)cc1`, for which the survival was inactive: 83%. With `Cc1cc(C)cc(-n2ccnc2SCC(=O)Nc2nnc(C)s2)c1`, the survival is inactive: 84%. As to `CCOC(=O)c1sc2ncn(CC(=O)Nc3ccc(N(C)C)cc3)c(=O)c2c1C`, the survival is inactive: 72%. Consider `O=C(Nc1nc2ccc(S(=O)(=O)N3CCCC3)cc2s1)c1cccc(F)c1`, for which the survival was inactive: 75%.

On to `CCS(=O)(=O)N1CCc2cc(C(=O)Nc3ccc(OC)c(Cl)c3)ccc21`, for which the survival is inactive: 47%. For `CCCCn1cc(S(=O)(=O)c2ccc(C)c(C)c2)c(=O)c2cc(F)c(N3CCCC(C)C3)cc21` (stereo not drawn), the survival is inactive: 89%.

For `COc1ccc(OC)c(CNC(=O)c2nn(-c3ccc(OC)c(Cl)c3)c(=O)c3c2c2ccccc2n3C)c1`, the survival was inactive: 131%. With `CCOc1ccc2nc(N3CCCC(C(=O)Nc4c(C)cccc4C)C3)sc2c1` (stereo not drawn) the figure was inactive: 82%; with `CC(=O)Nc1ccc(C(=O)CSc2nnnn2C(C)C)cc1`, inactive: 93%. With `O=C(C1CCN(S(=O)(=O)c2ccc(Br)s2)CC1)N1CCN(c2cccc(Cl)c2)CC1` the figure was inactive: 76%; with `COc1cc(C(=O)NCCCc2nc3ccccc3n2CC(C)C)cc(OC)c1OC`, inactive: 62%. In the case of `Cc1ccc(Sc2c(C)nn(C(=O)COc3ccccc3Br)c2C)cc1`, the survival is inactive: 88%. For the compound `CCOc1ccc(CCNC(=O)c2sc3nc4n(c(=O)c3c2C)CCCC4)cc1OCC`, the survival was inactive: 103%. For the compound `Cc1ccc2[nH]c(CSc3nnc(NC(=O)COc4ccccc4)s3)cc(=O)c2c1`, the survival was inactive: 82%. With `CCOC(=O)c1c(NC(=O)c2ccc(S(=O)(=O)N3CCC(C)CC3)cc2)sc2c1CCN(C)C2` the figure was inactive: 113%. On to `NC(=O)c1c(NC(=O)c2nc(SCc3ccccc3F)ncc2Cl)sc2c1CCCC2`, for which the survival is inactive: 53%. On to `CCN(CC)c1ccc(NS(=O)(=O)c2ccc(-c3cnc(C4CC4)o3)cc2)c(C)c1`, for which the survival is inactive: 84%. As for `O=C1NCCN(Cc2ccc(F)cc2)C1=O`, the survival was inactive: 83%.
